According to PubChem BioAssay AID298 (DTP/NCI, 2004):
Records with an inconclusive call do not appear. A number of entries come with more than one value. The list is limited to them. There may be further records. The values listed for one entry are repeated measurements (runs, samples, wells, individuals or studies). Brackets with × give the number of equal values in this list.

Test system: MX-1 breast xenograft, intrarenal, nude mice, tumor weight
Experiment: NCI In Vivo Anticancer Drug Screen. Data for tumor model Human Mammary Carcinoma MX-1 Xenograft (intrarenal inoculation) in NU/NU BALB/C (nude) mice
Conditions: endpoint: mean tumor weight change, higher = larger tumour
Procedure: The antitumor activity of compounds was measured in mice bearing transplantable tumors. Survival or tumor size were measured and the results are expressed as the measurement made in the treated group (T) divided by the measurement made in the vehicle treated control group (C). The tumor model used in this assay is Human Mammary Carcinoma MX-1 Xenograft (intrarenal inoculation) in NU/NU BALB/C (nude) mice

[1] = dose: 25.0 mg/kg/injection, schedule: Q04DX003 (ip), vehicle: DMSO

For O=C1C=C(N2CC2)C(=O)C(N2CC2)=C1N1CC1, the T/C (dose: 50.0 micrograms/kg/injection, schedule: Q04DX003 (ip), vehicle: saline) was -55 % of control, 3 % of control, 73 % of control, the T/C (dose: 100.0 micrograms/kg/injection, schedule: Q04DX003 (ip), vehicle: saline) was -87 % of control, 1 % of control, 30 % of control and the T/C (dose: 200.0 micrograms/kg/injection, schedule: Q04DX003 (ip), vehicle: saline) was -100 % of control (2×) and 7 % of control.

c1ccc2[nH]c(CN(CCN(Cc3nc4ccccc4[nH]3)Cc3nc4ccccc4[nH]3)Cc3nc4ccccc4[nH]3)nc2c1 was tested, and the T/C (dose: 12.5 mg/kg/injection, schedule: Q04DX003 (ip), vehicle: DMSO) was 58 % of control and 93 % of control and the T/C [1] was 73 % of control and 100 % of control.

In the case of N=C(N)c1nn(C2OC(CO)C(O)C2O)c2nc[nH]c(=O)c12 (stereo not drawn), the T/C (dose: 50.0 mg/kg/injection, schedule: Q04DX003 (ip), vehicle: Klucel + Tween-80) is reported as 27 % of control and 86 % of control and the T/C (dose: 100.0 mg/kg/injection, schedule: Q04DX003 (ip), vehicle: Klucel + Tween-80) is reported as 9 % of control and 36 % of control.

NS(=O)(=O)OCCCCCCCOS(N)(=O)=O was tested, and the T/C (dose: 37.5 mg/kg/injection, schedule: Q04DX003 (ip), vehicle: saline with Tween-80) was -42 % of control and 13 % of control and the T/C (dose: 75.0 mg/kg/injection, schedule: Q04DX003 (ip), vehicle: saline with Tween-80) was -81 % of control and 3 % of control.

In the case of COc1nc(C(Cl)(Cl)Cl)c(Cl)c(OC)c1Cl, the T/C (dose: 75.0 mg/kg/injection, schedule: Q04DX003 (ip), vehicle: Klucel (hydroxypropylcellulose) (HPC)) is reported as 17 % of control and 57 % of control.

With COc1c2c(c(O)c3c4c(c(C)cc13)C1OC3(C(OC)OC5CC(C)(O)C(OC6CC(C)(O)C(O)C(C)O6)C(C)O5)OC1C(OC)(O4)C31CO1)C(=O)C(O)CC2OC1CC(C)(O)C(OC(C)=O)C(C)O1 (stereo not drawn) the T/C (dose: 0.12 mg/kg/injection, schedule: Q04DX003 (ip), vehicle: saline) was 33 % of control, 42 % of control, 94 % of control and the T/C (dose: 0.25 mg/kg/injection, schedule: Q04DX003 (ip), vehicle: saline) was 15 % of control (2×) and 64 % of control.

In the case of COC1C(N)C(OC2C(Oc3cccc4c(O)c5c(=O)oc6ccc(C)c7c(=O)oc(c34)c5c67)OC(C)C(O)C2(C)O)OC(C)C1O (stereo not drawn), the T/C (dose: 5.0 mg/kg/injection, schedule: Q04DX003 (ip), vehicle: lactic acid) is reported as 37 % of control and 76 % of control.

In the case of C#CCNC1=C(C)C(=O)C2=C(C1=O)[C@H](COC(N)=O)[C@]1(OC)[C@@H]3N[C@@H]3CN21, the T/C (dose: 7.5 mg/kg/injection, schedule: Q04DX003 (ip), vehicle: distilled water + Tween-80) is reported as -100 % of control, 48 % of control, 95 % of control and the T/C (dose: 15.0 mg/kg/injection, schedule: Q04DX003 (ip), vehicle: distilled water + Tween-80) is reported as 40 % of control and 75 % of control.

Nc1ncn(C2OC(CO)C(O)C2O)c(=O)n1 (stereo not drawn) was tested, and the T/C (dose: 5.0 mg/kg/injection, schedule: Q04DX003 (sc), vehicle: saline) was 13 % of control and 39 % of control.

For O=C(NC(Cc1ccc(I)cc1)C(=O)O)c1ccc(Br)cc1 (stereo not drawn), the T/C (dose: 75.0 mg/kg/injection, schedule: Q04DX003 (ip), vehicle: sodium bicarbonate) was 63 % of control and 102 % of control.

In the case of COC(COC(=O)N1CCN(C=O)CC1)C1=C(N2CC2)C(=O)C(C)=C(N2CC2)C1=O (stereo not drawn), the T/C (dose: 6.0 mg/kg/injection, schedule: Q04DX003 (ip), vehicle: saline) is reported as -73 % of control and -3 % of control and the T/C (dose: 12.0 mg/kg/injection, schedule: Q04DX003 (ip), vehicle: saline) is reported as -70 % of control and 13 % of control.

For CC(C)(C[NH-])C[NH-].[Cl][Pt+2][Cl], the T/C (dose: 3.0 mg/kg/injection, schedule: Q04DX003 (ip), vehicle: water) was -100 % of control and 3 % of control.

In the case of C=C(C)/C([O-])=N/[N+](C)(C)CC(O)CCCCCCCCCCCC (stereo not drawn), the T/C (dose: 160.0 mg/kg/injection, schedule: Q04DX003 (ip), vehicle: Klucel (hydroxypropylcellulose) (HPC)) is reported as 69 % of control and 121 % of control.

CN(C)C1C(=O)C(C(=O)NP(=O)(NCCCO)N(CCCl)CCCl)=C(O)C2(O)C(=O)C3=C(O)c4c(O)cccc4C(C)(O)C3CC12 (stereo not drawn) was tested, and the T/C (dose: 150.0 mg/kg/injection, schedule: Q04DX003 (sc), vehicle: saline with Tween-80) was -100 % of control and -34 % of control.

CO[C@@]12[C@H](COC(N)=O)C3=C(C(=O)C(C)=C(N)C3=O)N1C[C@@H]1N[C@@H]12 was tested, and the T/C (dose: 3.0 mg/kg/injection, schedule: Q04DX003 (sc), vehicle: saline) was -28 % of control and 1 % of control, the T/C (dose: 6.0 mg/kg/injection, schedule: Q04DX003 (sc), vehicle: saline) was -100 % of control and 1 % of control and the T/C (dose: 12.0 mg/kg/injection, schedule: Q04DX003 (sc), vehicle: saline) was -90 % of control and -13 % of control.

For Cc1ccc(C(=O)NC2C(=O)NC(C(C)C)C(=O)N3CCCC3C(=O)N(C)CC(=O)N(C)C(C(C)C)C(=O)OC2C)c2c1Oc1c(c(C(=O)NC3C(=O)NC(C(C)C)C(=O)N4CCCC4C(=O)N(C)CC(=O)N(C)C(C(C)C)C(=O)OC3C)c3nc(-c4ccccc4)c(=O)oc3c1C)N2 (stereo not drawn), the T/C (dose: 0.5 mg/kg/injection, schedule: Q04DX003 (ip), vehicle: water) was 26 % of control and 60 % of control.

With COc1cc2oc3c(C)c(=O)cc4oc(-c5ccccc5)cc(c2c2c1CCC(c1ccccc1)O2)c43 (stereo not drawn) the T/C (dose: 28.0 mg/kg/injection, schedule: Q04DX003 (ip), vehicle: Klucel (hydroxypropylcellulose) (HPC)) was 50 % of control and 114 % of control.

In the case of ClCC[N+]12CC[N+](CCCl)(CC1)C2, the T/C (dose: 50.0 mg/kg/injection, schedule: Q01DX010 (sc), vehicle: saline with Tween-80) is reported as 30 % of control and 73 % of control.

In the case of COC(=O)c1ccc(N=NN(C)COC(C)=O)cc1, the T/C (dose: 144.0 mg/kg/injection, schedule: Q04DX003 (ip), vehicle: Klucel (hydroxypropylcellulose) (HPC)) is reported as 62 % of control and 103 % of control and the T/C (dose: 240.0 mg/kg/injection, schedule: Q04DX003 (ip), vehicle: Klucel (hydroxypropylcellulose) (HPC)) is reported as -100 % of control and 25 % of control.

In the case of CCCCN1C(=O)N(c2ccc(OCC)cc2)C2N(CCCC)C1C(C)(C)C2(C)C (stereo not drawn), the T/C (dose: 120.0 mg/kg/injection, schedule: Q04DX003 (ip), vehicle: saline with Tween-80) is reported as 58 % of control and 86 % of control.

In the case of CCOC1=Cc2c(oc3c(C(C)(C)C)cc(OCC)cc23)OC(C(C)(C)C)=C1, the T/C (dose: 1200.0 mg/kg/injection, schedule: Q04DX003 (sc), vehicle: saline with Tween-80) is reported as 64 % of control and 120 % of control.

In the case of COc1cccc(Sc2ccc([N+](=O)[O-])c3no[n+]([O-])c23)c1, the T/C (dose: 3.75 mg/kg/injection, schedule: Q04DX003 (ip), vehicle: saline with Tween-80) is reported as 46 % of control and 98 % of control and the T/C (dose: 15.0 mg/kg/injection, schedule: Q04DX003 (ip), vehicle: saline with Tween-80) is reported as 57 % of control and 96 % of control.

In the case of O=NN(CCCl)C(=O)NCCCl, the T/C (dose: 27.0 mg/kg/injection, schedule: Q04DX003 (ip), vehicle: saline + alcohol) is reported as 6 % of control and 34 % of control.

For O=c1[nH]c(=O)n(C2CC(O)C(CO)O2)cc1F (stereo not drawn), the T/C (dose: 50.0 mg/kg/injection, schedule: Q01DX010 (sc), vehicle: water) was 7 % of control and 44 % of control.

CO[C@@]12[C@@H]3N[C@@H]3CN1C1=C(C(=O)C(N3CCCC3)=C(C)C1=O)[C@@H]2COC(N)=O was tested, and the T/C (dose: 3.0 mg/kg/injection, schedule: Q04DX003 (ip), vehicle: saline with Tween-80) was -51 % of control and -21 % of control and the T/C (dose: 6.0 mg/kg/injection, schedule: Q04DX003 (ip), vehicle: saline with Tween-80) was -90 % of control and 8 % of control.

In the case of O=C[C@@H](CO)O[C@H](C=O)c1c[nH]c(=O)[nH]c1=O, the T/C (dose: 50.0 mg/kg/injection, schedule: Q04DX003 (ip), vehicle: saline) is reported as 38 % of control, 58 % of control, 69 % of control.

With COc1cc(NCc2ccc3nc(N)nc(N)c3c2C)cc(OC)c1OC the T/C (dose: 60.0 mg/kg/injection, schedule: Q04DX003 (ip), vehicle: Klucel (hydroxypropylcellulose) (HPC)) was 75 % of control and 103 % of control.

In the case of CNC(=O)OCc1nc(SC)n(C)c1COC(=O)NC, the T/C (dose: 50.0 mg/kg/injection, schedule: Q04DX003 (ip), vehicle: suspension in saline) is reported as -91 % of control and -22 % of control and the T/C (dose: 100.0 mg/kg/injection, schedule: Q04DX003 (ip), vehicle: suspension in saline) is reported as -73 % of control and -28 % of control.

COc1cc2c(oc(=O)c3cc(C)cc(OC)c32)c2c(C3OC(C)C(O)C(C)(O)C3O)ccc(O)c12 (stereo not drawn) was tested, and the T/C [1] was 79 % of control and 105 % of control.

For [N-]=[N+]=CC(=O)CCC(NC(=O)OCc1ccccc1)C(=O)OCc1ccccc1 (stereo not drawn), the T/C (dose: 150.0 mg/kg/injection, schedule: Q04DX003 (ip), vehicle: Klucel (hydroxypropylcellulose) (HPC)) was 15 % of control and 42 % of control.

CN(N=O)C(N)=O was tested, and the T/C (dose: 100.0 mg/kg/injection, schedule: Q04DX003 (sc), vehicle: saline) was -19 % of control and 92 % of control.

In the case of CCN(CC)CCn1[nH]c2c3ccc(=O)cc3sc3c(NCCN)ccc1c32, the T/C (dose: 12.5 mg/kg/injection, schedule: Q04DX003 (ip), vehicle: water) is reported as 10 % of control, 17 % of control, 51 % of control.

With NC(CNC(=O)CBr)C(=O)O (stereo not drawn) the T/C (dose: 75.0 mg/kg/injection, schedule: Q04DX003 (sc), vehicle: water) was 43 % of control and 84 % of control and the T/C (dose: 100.0 mg/kg/injection, schedule: Q04DX003 (sc), vehicle: water) was 52 % of control and 91 % of control.
